Laboratory results: the supplement of paper PMC7826260
Some of the results follow. Viral Rep nickase domains cut single-stranded DNA in vitro (3 µM enzyme, 1 h, 37 °C); shown is the middle of each 90-letter strand. Numbers give uncut DNA relative to the enzyme-free pool, as log2; uncut sequences lie near 0, cut ones below; no hit call is given. The scaling is to total reads, so uncut sequences can rise above 0 when many others are cut.

How the values were obtained:
Assay in all cases: uncleaved DNA left, log2 of reads against the no-enzyme library (log2 ratio); higher = less cleavage (more negative = more Rep cleavage of the k-mer); sequences stand for … in CTCGTCCG…ACCGGAGA
[1] = tested on: T1, Rep nickase domain of Muscovy duck circovirus
T1 sequence (protein, residues 1-111, tag omitted): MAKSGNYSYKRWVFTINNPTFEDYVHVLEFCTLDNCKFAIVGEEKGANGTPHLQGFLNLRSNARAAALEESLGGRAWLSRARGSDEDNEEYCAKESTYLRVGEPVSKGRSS
Method: (§1)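 A pool of 90-nt single-stranded DNAs with seven random bases just before the constant AC of the nick site (name = the seven bases) was cut by 3 µM recombinant His6-SUMO-tagged Rep nickase domain (300 nM DNA, 50 mM HEPES pH 8.0, 50 mM NaCl, 1 mM MnCl2, 1 h, 37 °C, three replicates). Uncut DNA was amplified and sequenced.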

[2] = tested on: T2, Rep nickase domain of banana bunchy top virus
T2 sequence (protein, residues 1-94, tag omitted): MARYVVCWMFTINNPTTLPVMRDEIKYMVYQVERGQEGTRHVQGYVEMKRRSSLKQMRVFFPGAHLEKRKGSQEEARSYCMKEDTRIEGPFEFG
Method: as §1

[3] = tested on: T3, Rep nickase domain of cabbage leaf curl virus
T3 sequence (protein, residues 1-116, tag omitted): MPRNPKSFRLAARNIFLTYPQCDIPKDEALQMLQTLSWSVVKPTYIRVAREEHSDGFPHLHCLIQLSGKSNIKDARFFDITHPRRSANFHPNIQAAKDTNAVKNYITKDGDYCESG
Method: as §1

[4] = tested on: T4, Rep nickase domain of chickpea chlorotic dwarf virus
T4 sequence (protein, residues 1-124, tag omitted): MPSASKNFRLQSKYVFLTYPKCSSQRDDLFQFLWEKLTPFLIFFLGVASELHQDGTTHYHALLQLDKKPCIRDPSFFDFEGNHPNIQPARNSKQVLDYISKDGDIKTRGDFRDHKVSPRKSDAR
Method: as §1

[5] = tested on: T5, Rep nickase domain of faba bean necrotic yellows virus
T5 sequence (protein, residues 1-98, tag omitted): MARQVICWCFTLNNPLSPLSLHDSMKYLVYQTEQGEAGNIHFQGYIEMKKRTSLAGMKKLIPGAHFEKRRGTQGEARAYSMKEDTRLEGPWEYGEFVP
Method: as §1

[6] = tested on: T6, Rep nickase domain of maize striate mosaic virus
T6 sequence (protein, residues 1-117, tag omitted): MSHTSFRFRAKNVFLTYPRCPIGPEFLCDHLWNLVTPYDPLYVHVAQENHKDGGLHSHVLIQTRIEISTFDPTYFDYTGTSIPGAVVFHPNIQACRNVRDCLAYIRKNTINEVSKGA
Method: as §1

[7] = tested on: T7, Rep nickase domain of porcine circovirus 2
T7 sequence (protein, residues 2-116, tag omitted): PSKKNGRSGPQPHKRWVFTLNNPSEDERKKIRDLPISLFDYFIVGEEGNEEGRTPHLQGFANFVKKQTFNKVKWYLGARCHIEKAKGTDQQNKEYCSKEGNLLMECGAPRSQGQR
Method: as §1

[8] = tested on: T8, Rep nickase domain of tomato yellow leaf curl virus
T8 sequence (protein, residues 1-136, tag omitted): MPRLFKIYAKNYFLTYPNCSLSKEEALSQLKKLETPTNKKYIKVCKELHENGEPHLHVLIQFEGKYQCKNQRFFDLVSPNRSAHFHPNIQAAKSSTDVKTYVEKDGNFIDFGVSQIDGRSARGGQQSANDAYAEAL
Method: as §1

[9] = tested on: T9, Rep nickase domain of wheat dwarf virus
T9 sequence (protein, residues 1-137, tag omitted): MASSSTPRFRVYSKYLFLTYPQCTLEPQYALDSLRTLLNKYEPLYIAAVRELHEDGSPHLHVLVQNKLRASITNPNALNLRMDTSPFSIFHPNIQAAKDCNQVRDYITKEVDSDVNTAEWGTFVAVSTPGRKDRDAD
Method: as §1

Sequence | uncleaved DNA left (log2) [1] | uncleaved DNA left (log2) [2] | uncleaved DNA left (log2) [3] | uncleaved DNA left (log2) [4] | uncleaved DNA left (log2) [5] | uncleaved DNA left (log2) [6] | uncleaved DNA left (log2) [7] | uncleaved DNA left (log2) [8] | uncleaved DNA left (log2) [9]
GCGGGGA | 0.0889 | 0.0023 | 0.762 | 1.11 | -0.00685 | 1.91 | 0.238 | -0.0799 | 0.0747
CTGATGT | 0.044 | -0.162 | -0.0602 | -0.459 | 0.047 | -0.835 | -0.0613 | -0.105 | -0.0808
TCCGACC | -0.0776 | -0.0519 | 0.0891 | -0.0903 | -0.0149 | -0.575 | -0.103 | -0.138 | -0.13
GGTAGAT | 0.0238 | 0.0453 | 0.718 | 1.76 | 0.0088 | 2.08 | 0.165 | -0.00415 | 0.142
GATAATG | 0.112 | 0.0599 | -0.0584 | 0.0913 | 0.143 | -0.514 | 0.166 | 0.0278 | 0.0251
AGTAACG | 0.0544 | 0.0553 | -0.725 | -0.789 | 0.0143 | -1.01 | 0.132 | 0.0565 | -0.0262
CAAATCT | -0.0479 | 0.0204 | -3.22 | -3.12 | 0.0703 | -1.33 | -0.834 | -0.014 | -1.37
TGAGCAT | 0.0179 | -0.0431 | 0.351 | 0.903 | 0.0286 | 1.08 | 0.00435 | -0.0138 | 0.00588
CAAAGGA | 0.0559 | -0.0512 | 0.0677 | 0.201 | 0.0545 | -0.313 | 0.0841 | -0.0716 | -0.00325
GATCCTG | 0.0898 | 0.0935 | 0.222 | 1.13 | -0.00673 | 1.38 | 0.155 | 0.085 | 0.0863
TAAGGCG | -0.0366 | -0.0536 | -0.875 | 0.169 | 0.0292 | -0.915 | 0.0947 | -0.156 | -0.224
TCAGATC | -0.0133 | -0.128 | 0.189 | -0.133 | -0.0227 | -0.234 | -0.0821 | -0.174 | -0.118
GGTAGTG | 0.048 | -0.0153 | -0.101 | 0.0442 | 0.017 | -0.302 | 0.12 | 0.0104 | 0.0547
CTAACCA | -0.147 | 0.0862 | -0.303 | -2.08 | 0.00605 | -0.552 | -0.583 | 0.251 | 0.0969
TGATGAA | 0.0302 | 0.0635 | 0.234 | -0.179 | 0.0528 | -0.0358 | -0.0928 | 0.0718 | -0.00608
CTCCCTT | -0.0339 | -0.171 | 0.0312 | -1.64 | 0.0343 | -0.415 | -0.104 | 0.106 | -0.00726
AATTGTG | 0.023 | -0.0638 | -0.506 | 1.1 | 0.125 | 0.133 | 0.139 | 0.208 | -0.0731
ATCGGGA | 0.101 | 0.0395 | 0.475 | 0.817 | 0.0328 | 1.28 | 0.208 | -0.0306 | -0.00288
TGCCGGA | -0.0239 | 0.0418 | 0.118 | 0.422 | -0.001 | 0.0629 | 0.0611 | 0.0753 | -0.0514
TGAGCCA | -0.0633 | 0.138 | 0.18 | -0.129 | 0.081 | 0.127 | -0.312 | 0.0932 | 0.084
CGGCTGT | 0.00461 | 0.0654 | -0.06 | 0.518 | -0.0553 | 1.66 | 0.0809 | -0.0896 | 0.065
CTCCCAG | 0.0283 | -0.0278 | -0.689 | -0.561 | 0.126 | -0.947 | 0.12 | 0.00698 | 0.00198
GTAATTT | -0.0523 | 0.134 | 0.359 | 0.735 | -0.0171 | 1.8 | 0.133 | 0.0782 | 0.09
TTTCCCG | -1.38 | -0.0675 | -0.906 | -0.312 | 0.0253 | -0.957 | -2.48 | -0.0176 | -0.202
CTCACTG | -0.0563 | -0.0873 | -0.0336 | 0.295 | -0.0203 | 0.86 | 0.0519 | -0.0824 | 0.0564
TCTTTGC | -0.106 | -0.078 | -0.715 | -0.367 | 0.133 | -1.32 | 0.105 | 0.0448 | -0.182
CCCCCAG | -0.0805 | -0.0946 | -0.532 | -0.509 | 0.0746 | -0.882 | -0.0277 | -0.0267 | -0.204
CCGCTTA | 0.0124 | -0.0345 | -0.0538 | -0.782 | -0.0185 | -0.341 | -0.02 | -0.0177 | 0.0474
GCAAGCG | -0.0349 | -0.0163 | -0.663 | 0.279 | -0.0222 | -0.703 | 0.135 | 0.00271 | -0.123
TGCCGAC | -0.114 | -0.185 | -0.0875 | 0.0508 | -0.166 | -0.227 | -0.00336 | -0.124 | -0.053
